{"source": "the supplement of paper PMC8728848", "binders": {"B1": {"name": "AT1G15820(NC) (Arabidopsis thaliana) (protein)", "chain": "MAMAVSGAVLSGLGSSFLTGGKRGATALASGVGDAIAPFSFGSLLGTQLLLMGWVESKRWVDFFNPDSQSVEWATPWSKTAENFANYTGDQGYPGGRFFDPLGLAGKNRDGVYEPDFEKLERLKLAEIKHSRLAMVAMLIFYFEAGQGKTPLGALGL"}}, "assay_in_all_cases": "glycan array binding signal (z-score within array); higher = stronger binding", "settings_in_all_cases": "glycan notation: IUPAC condensed, linker removed", "key": {"[1]": {"target": "Gal(b1-4)Glc", "in_short": "(§1)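 Columns mapping to the same glycan were averaged after glycan names were converted to IUPAC-condensed notation. The data come from 3228 arrays in the Consortium for Functional Glycomics database, limited to those with an available protein sequence. Binding is reported as a within-array Z-score averaged across arrays of one protein sequence and across linkers.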"}, "[2]": {"target": "Gal(b1-4)Glc6S", "in_short": "as §1"}, "[3]": {"target": "Gal(b1-4)GlcNAc", "in_short": "as §1"}, "[4]": {"target": "Gal(b1-4)GlcNAc(a1-6)Gal(b1-4)GlcNAc", "in_short": "as §1"}, "[5]": {"target": "Gal(b1-4)GlcNAc(b1-2)Man", "in_short": "as §1"}, "[6]": {"target": "Gal(b1-4)GlcNAc(b1-2)Man(a1-3)Man(b1-4)GlcNAc(b1-4)GlcNAc", "in_short": "as §1"}, "[7]": {"target": "Gal(b1-4)GlcNAc(b1-2)Man(a1-3)[Gal(b1-4)GlcNAc(b1-2)Man(a1-6)]Man(b1-4)GlcNAc(b1-4)GlcNAc", "in_short": "as §1"}, "[8]": {"target": "Gal(b1-4)GlcNAc(b1-2)Man(a1-3)[Gal(b1-4)GlcNAc(b1-2)Man(a1-6)]Man(b1-4)GlcNAc(b1-4)[Fuc(a1-6)]GlcNAc", "in_short": "as §1"}, "[9]": {"target": "Gal(b1-4)GlcNAc(b1-2)Man(a1-3)[Gal(b1-4)GlcNAc(b1-2)Man(a1-6)][Gal(b1-4)GlcNAc(b1-4)]Man(b1-4)GlcNAc(b1-4)[Fuc(a1-6)]GlcNAc", "in_short": "as §1"}, "[10]": {"target": "Gal(b1-4)GlcNAc(b1-2)Man(a1-3)[Gal(b1-4)GlcNAc(b1-2)Man(a1-6)][GlcNAc(b1-4)]Man(b1-4)GlcNAc(b1-4)[Fuc(a1-6)]GlcNAc", "in_short": "as §1"}, "[11]": {"target": "Gal(b1-4)GlcNAc(b1-2)Man(a1-3)[GlcNAc(b1-2)Man(a1-6)]Man(b1-4)GlcNAc(b1-4)GlcNAc", "in_short": "as §1"}, "[12]": {"target": "Gal(b1-4)GlcNAc(b1-2)Man(a1-3)[GlcNAc(b1-4)][Gal(b1-4)GlcNAc(b1-2)Man(a1-6)]Man(b1-4)GlcNAc(b1-4)GlcNAc", "in_short": "as §1"}, "[13]": {"target": "Gal(b1-4)GlcNAc(b1-2)Man(a1-3)[Man(a1-6)]Man(b1-4)GlcNAc(b1-4)GlcNAc", "in_short": "as §1"}, "[14]": {"target": "Gal(b1-4)GlcNAc(b1-2)Man(a1-6)Man(b1-4)GlcNAc(b1-4)GlcNAc", "in_short": "as §1"}, "[15]": {"target": "Gal(b1-4)GlcNAc(b1-2)Man(a1-6)[GlcNAc(b1-2)Man(a1-3)]Man(b1-4)GlcNAc(b1-4)GlcNAc", "in_short": "as §1"}, "[16]": {"target": "Gal(b1-4)GlcNAc(b1-2)Man(a1-6)[Man(a1-3)]Man(b1-4)GlcNAc(b1-4)GlcNAc", "in_short": "as §1"}, "[17]": {"target": "Gal(b1-4)GlcNAc(b1-2)[Gal(b1-4)GlcNAc(b1-4)]Man(a1-3)[Gal(b1-4)GlcNAc(b1-2)Man(a1-6)]Man(b1-4)GlcNAc(b1-4)GlcNAc", "in_short": "as §1"}, "[18]": {"target": "Gal(b1-4)GlcNAc(b1-2)[Gal(b1-4)GlcNAc(b1-4)]Man(a1-3)[Gal(b1-4)GlcNAc(b1-2)[Gal(b1-4)GlcNAc(b1-6)]Man(a1-6)]Man(b1-4)GlcNAc(b1-4)GlcNAc", "in_short": "as §1"}, "[19]": {"target": "Gal(b1-4)GlcNAc(b1-2)[Gal(b1-4)GlcNAc(b1-4)]Man(a1-3)[GlcNAc(b1-4)][Gal(b1-4)GlcNAc(b1-2)Man(a1-6)]Man(b1-4)GlcNAc(b1-4)GlcNAc", "in_short": "as §1"}, "[20]": {"target": "Gal(b1-4)GlcNAc(b1-2)[Gal(b1-4)GlcNAc(b1-4)]Man(a1-3)[GlcNAc(b1-4)][Gal(b1-4)GlcNAc(b1-2)[Gal(b1-4)GlcNAc(b1-6)]Man(a1-6)]Man(b1-4)GlcNAc(b1-4)GlcNAc", "in_short": "as §1"}, "[21]": {"target": "Gal(b1-4)GlcNAc(b1-2)[Gal(b1-4)GlcNAc(b1-6)]Man(a1-6)[Gal(b1-4)GlcNAc(b1-2)Man(a1-3)]Man(b1-4)GlcNAc(b1-4)GlcNAc", "in_short": "as §1"}, "[22]": {"target": "Gal(b1-4)GlcNAc(b1-2)[Gal(b1-4)GlcNAc(b1-6)]Man(a1-6)[Gal(b1-4)GlcNAc(b1-2)Man(a1-3)]Man(b1-4)GlcNAc(b1-4)[Fuc(a1-6)]GlcNAc", "in_short": "as §1"}}, "note": "Some of the results follow.", "data": [{"binder": "B1", "values": [{"measurement": "glycan array binding signal (z-score)", "setting": "[1]", "result": 0.051}, {"measurement": "glycan array binding signal (z-score)", "setting": "[2]", "result": 0.369}, {"measurement": "glycan array binding signal (z-score)", "setting": "[3]", "result": -0.455}, {"measurement": "glycan array binding signal (z-score)", "setting": "[4]", "result": 0.124}, {"measurement": "glycan array binding signal (z-score)", "setting": "[5]", "result": -0.121}, {"measurement": "glycan array binding signal (z-score)", "setting": "[6]", "result": 0.067}, {"measurement": "glycan array binding signal (z-score)", "setting": "[7]", "result": -0.635}, {"measurement": "glycan array binding signal (z-score)", "setting": "[8]", "result": 0.043}, {"measurement": "glycan array binding signal (z-score)", "setting": "[9]", "result": -0.427}, {"measurement": "glycan array binding signal (z-score)", "setting": "[10]", "result": -0.274}, {"measurement": "glycan array binding signal (z-score)", "setting": "[11]", "result": -0.483}, {"measurement": "glycan array binding signal (z-score)", "setting": "[12]", "result": -0.435}, {"measurement": "glycan array binding signal (z-score)", "setting": "[13]", "result": -0.554}, {"measurement": "glycan array binding signal (z-score)", "setting": "[14]", "result": -0.602}, {"measurement": "glycan array binding signal (z-score)", "setting": "[15]", "result": -0.325}, {"measurement": "glycan array binding signal (z-score)", "setting": "[16]", "result": -0.331}, {"measurement": "glycan array binding signal (z-score)", "setting": "[17]", "result": -0.531}, {"measurement": "glycan array binding signal (z-score)", "setting": "[18]", "result": -0.478}, {"measurement": "glycan array binding signal (z-score)", "setting": "[19]", "result": 0.134}, {"measurement": "glycan array binding signal (z-score)", "setting": "[20]", "result": -0.213}, {"measurement": "glycan array binding signal (z-score)", "setting": "[21]", "result": -0.585}, {"measurement": "glycan array binding signal (z-score)", "setting": "[22]", "result": -0.328}]}]}
